The campaign covered roughly 280,000 compounds. About 540 (0.19%) were called active. The shares of active, inactive and inconclusive entries below differ from those in the screen. The call rests on the fitted dose curve; in most records, active means well fitted activation curve with a large enough effect; inconclusive means small, poorly fitted or top-dose-only effect; inactive means flat fitted curve, though single readings scatter. Potencies of inconclusive entries are doubtful fits and often do not repeat.
Test: Quantitative High-Throughput Screen for Regulators of Epigenetic Control; further: nearly all actives have a fitted effect of over 60% in size
Settings: murine LDR cells, GFP reporter derepression, 30 h; series mostly up to 53.9 µM
Outline: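 Murine LDR cells carrying a silenced, genomically integrated CMV-driven GFP reporter were exposed to compound for 30 hours at 37 C. After PBS washes, GFP-positive cells (20–120 um objects) were counted by laser-scanning microplate cytometry.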
Potency means the concentration at half of the fitted maximal effect; tags describe the fitted curve by direction and shape.

Row | SMILES | Potency
1 | COc1ccc(-n2nnnc2C2CCN(S(=O)(=O)c3ccc(NC(C)=O)cc3)CC2)cc1 | inactive
2 | Cc1cccc(-c2nc(C)c(CCNC(=O)C(=O)Nc3ccccc3C#N)s2)c1 | inconclusive: 15.8 µM [activator, single point]
3 | N#Cc1c(C(F)(F)F)cc(-c2ccc(F)cc2)nc1SCC(=O)Nc1ccccc1 | inactive
4 | CCc1nc(N2CCN(C(=O)c3ccccc3)CC2)c(C#N)c2c1COC(C)(C)C2 | inconclusive: 3.98 µM [activator, single point]
5 | Cc1cccc(C)c1Nc1nnc(SCc2nc3ccccc3s2)s1 | inactive
6 | COc1cc2cc3c(N)c(C(=O)Nc4sc(C)c(C)c4C#N)sc3nc2cc1OC | inactive
7 | COc1ccc(-c2nn3c(=O)cc(CN4CCN(C(=O)/C=C/c5ccccc5)CC4)nc3s2)cc1 | inconclusive: 25.1 µM [activator, single point]
8 | NC(=O)CC(NC(=O)c1ccccc1)c1ccc(NC2CCCC2)c([N+](=O)[O-])c1 (stereo not given) | inconclusive: 31.6 µM [activator, single point]
9 | O=C(NCc1ccco1)C1CCN(S(=O)(=O)N2CCOCC2)CC1 | inactive
10 | COc1cc(NC(=O)CN2CCN(c3ccc(F)cc3)CC2)cc(OC)c1 | inconclusive: 5.62 µM [activator, single point]
11 | CC1=CC2=NC(=O)/C(=C\c3ccc(-c4cccc(Cl)c4)o3)C(=N)N2O1 | inconclusive: 25.1 µM [activator, single point]
12 | Nc1ncn([C@H]2O[C@@H](CO)[C@@H](O)[C@@H]2O)c(=O)n1 | inconclusive: 1.12 µM [activator, partial curve]
13 | Cc1cccc(-n2c(SCC(=O)Nc3ccc4c(c3)OCO4)nnc2-c2ccoc2C)c1 | inconclusive: 15.8 µM [activator, single point]
14 | O=C1Cc2ccccc2C(=O)N1Cc1ccccc1 | inactive
15 | N#CC(C#N)=C/C(C#N)=C(/N)N1CCN(c2ccc(Cl)cc2)CC1 | inconclusive: 35.5 µM [activator, single point]
16 | Nc1c2ccccc2nc2ccccc12 | inconclusive: 31.6 µM [activator, single point]
17 | O=C(Cc1cccc2ccccc12)N/N=C/c1ccc(Sc2cccc3cccnc23)o1 | inconclusive: 31.6 µM [activator, single point]
18 | CSc1nc2ccc(NC(=O)c3ccc(Cl)s3)cc2s1 | inconclusive: 28.2 µM [activator, single point]
19 | CCCOc1ccc(N)cc1N | inconclusive: 25.1 µM [activator, single point]
20 | C=C(C)CNC(=S)N/N=C/c1ccco1 | inconclusive: 35.5 µM [activator, single point]
21 | COc1ccccc1NC(=O)c1cnc(SCC(=O)N2CCOCC2)n(C)c1=O | inconclusive: 14.1 µM [activator, partial curve]
22 | Nc1ccc2c(c1)OC1(CCCC1)O2 | inconclusive: 35.5 µM [activator, single point]
23 | O=C(NCCNc1ccc([N+](=O)[O-])cc1)c1cccc(Br)c1 | inconclusive: 31.6 µM [activator, single point]

Row | SMILES | Potency
24 | c1ccc(OCCN2C3=NCCN3c3ccccc32)cc1 | inconclusive: 6.31 µM [activator, single point]
25 | CCOc1ccc(C(=O)Nc2ccc3nc(SCC(=O)N4CCc5ccccc54)sc3c2)cc1 | inconclusive: 11.2 µM [activator, partial curve]
26 | CC(=O)N1CCc2cc(S(=O)(=O)NC(Cc3ccccc3)C(=O)Nc3cc(C)ccc3C)ccc21 (stereo not given) | inconclusive: 17.8 µM [activator, single point]
27 | Cc1ccc(CNC(=O)c2ccc(Cn3c(=O)c4ccccc4n(CC(=O)Nc4c(C)cc(C)cc4C)c3=O)cc2)cc1 | inconclusive: 35.5 µM [activator, single point]
28 | N#CCCn1cc(/C=C(\C#N)c2nc3ccccc3s2)c(-c2ccc(F)cc2)n1 | inconclusive: 28.2 µM [activator, single point]
29 | CCOc1ccc(OCC)c(NC(=O)c2ccc(-c3ccccc3)s2)c1 | inconclusive: 35.5 µM [activator, single point]
30 | CN(C)CCCn1c(N)c(C#N)c2nc(C#N)c(C#N)nc21 | inconclusive: 31.6 µM [activator, single point]
31 | NC(=O)CCCCn1ccc(NC(N)=NCC(F)(F)F)n1 | inactive
32 | CC(C)=CCc1c(O)ccc2c1OC(c1ccc(O)c(O)c1)CC2=O (stereo not given) | inconclusive: 35.5 µM [activator, single point]
33 | Cc1cccc2sc(NNC(=O)c3ccc(S(=O)(=O)N4CCCC(C)C4)cc3)nc12 (stereo not given) | inactive
34 | O=C(NCc1ccc(F)cc1)c1ccc2nc(N3CCCCC3)sc2c1 | inconclusive: 20 µM [activator, single point]
35 | Cc1cc2c(c(=O)o1)[C@H](O)[C@H]1O[C@@H]1C2=O | inconclusive: 5.01 µM [activator, single point]
36 | CCC1CN(C(=O)Nc2ccc(Br)cc2F)c2ccccc2S1 (stereo not given) | inactive
37 | O=C(NCC(c1ccc(Cl)cc1)N1CCCCC1)c1ccccc1F (stereo not given) | inactive
38 | O=C(NC(=S)Nc1ccc(N2CCCCC2)cc1)c1ccco1 | inactive
39 | O=C(Oc1ccc(Cl)c2cccnc12)c1cccc([N+](=O)[O-])c1 | inconclusive: 35.5 µM [activator, single point]
40 | NC(=O)c1ccc(NC(=O)COC(=O)c2c3c(nc4ccccc24)/C(=C\c2cccs2)CCC3)cc1 | inactive
41 | CCOC(=O)c1sc2nc(C)nc(SCC(=O)N(C)C3CCS(=O)(=O)C3)c2c1C (stereo not given) | inactive
42 | Cc1ccccc1N(C)S(=O)(=O)c1nnc(NC(=O)C(C)C)s1 | active: 22.4 µM
43 | c1ccc(-c2ccc(-n3ccnc3)cc2)cc1 | inconclusive: 3.55 µM [activator, single point]
44 | Cc1nnc(NCc2ccccc2)c2c1nnn2Cc1ccccc1Cl | inactive
45 | CCOc1ccc2c(c1)S/C(=C\c1cccs1)C(=O)N2 | inconclusive: 35.5 µM [activator, single point]
